# In PMC4336329 (PLoS ONE, 2015):
# The whole screen tested about 310,000 compounds, of which about 14,000 (4.5%) showed an effect of 50% or more. Effects have a minus sign here. The list shows a part of the results.
# Molecular target: human ether-à-go-go-related gene (hERG) potassium channel (human, UniProt Q12809)
# Assay: primary screen, population patch clamp on CHO cells stably expressing hERG
# 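Further: peak tail current of the secondary pulse compared with the same well before compound.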
# human ether-à-go-go-related gene (hERG) potassium channel, sequence (Q12809 whole entry, looked up): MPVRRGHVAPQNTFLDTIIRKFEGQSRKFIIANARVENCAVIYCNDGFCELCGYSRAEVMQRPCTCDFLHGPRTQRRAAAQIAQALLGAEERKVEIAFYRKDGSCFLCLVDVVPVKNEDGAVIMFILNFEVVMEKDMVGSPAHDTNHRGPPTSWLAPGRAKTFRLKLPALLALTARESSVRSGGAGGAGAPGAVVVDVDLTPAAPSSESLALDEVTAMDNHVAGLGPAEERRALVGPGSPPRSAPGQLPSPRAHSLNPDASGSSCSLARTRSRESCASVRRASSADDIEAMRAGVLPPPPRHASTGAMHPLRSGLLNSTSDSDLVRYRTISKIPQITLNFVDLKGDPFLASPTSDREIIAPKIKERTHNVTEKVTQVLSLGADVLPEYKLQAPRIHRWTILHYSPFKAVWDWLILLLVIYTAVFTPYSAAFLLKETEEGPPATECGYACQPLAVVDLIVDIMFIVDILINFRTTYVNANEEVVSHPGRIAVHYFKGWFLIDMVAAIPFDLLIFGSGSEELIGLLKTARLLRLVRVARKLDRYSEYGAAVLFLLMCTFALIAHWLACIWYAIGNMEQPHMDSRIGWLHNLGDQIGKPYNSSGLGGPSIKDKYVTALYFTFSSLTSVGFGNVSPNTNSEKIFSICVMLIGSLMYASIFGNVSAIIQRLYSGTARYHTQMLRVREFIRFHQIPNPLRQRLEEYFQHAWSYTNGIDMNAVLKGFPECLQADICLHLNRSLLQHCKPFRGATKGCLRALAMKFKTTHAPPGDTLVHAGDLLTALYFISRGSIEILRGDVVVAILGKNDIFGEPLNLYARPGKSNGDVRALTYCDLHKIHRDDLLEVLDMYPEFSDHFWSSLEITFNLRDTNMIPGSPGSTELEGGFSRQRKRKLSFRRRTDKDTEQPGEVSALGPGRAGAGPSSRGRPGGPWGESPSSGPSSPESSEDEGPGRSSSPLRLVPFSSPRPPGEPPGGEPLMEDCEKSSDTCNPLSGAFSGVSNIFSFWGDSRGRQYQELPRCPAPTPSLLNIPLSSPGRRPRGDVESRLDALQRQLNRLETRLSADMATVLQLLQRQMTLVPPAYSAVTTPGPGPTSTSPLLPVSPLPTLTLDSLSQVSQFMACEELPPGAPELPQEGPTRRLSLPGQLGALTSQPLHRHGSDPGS
row,Compound,"hERG current change (%, negative = inhibition) at 10uM [%]"
1,CCOC(=O)CSC(C)C(=O)Nc1nnc(C(C)C)s1 (stereo not drawn),-3.58
2,Cc1cc(NC(=O)c2cc([N+](=O)[O-])cc([N+](=O)[O-])c2)n(-c2ccccc2)n1,7.63
3,O=C(NC1CCCC1)C1c2ccccc2C(=O)N1C1CCCCC1 (stereo not drawn),-2.27
4,CN(C)CCN1C(=O)C(O)=C(C(=O)c2ccco2)C1c1ccccc1F (stereo not drawn),11.9
5,COc1ccc(S(=O)(=O)N(CC(=O)N2CCOCC2)Cc2ccccc2)cc1C,-18.8
6,CCN(CC)S(=O)(=O)c1cccc(NC(=O)COC(=O)CNC(=O)c2cccc(F)c2)c1,-31.4
7,CC1CCCN(C(C(=O)Nc2ccc3c(c2)OCO3)c2ccccc2)C1 (stereo not drawn),-19.7
8,N/C(Cc1ccc([N+](=O)[O-])cc1)=N\OC(=O)C1CCCCC1,-3.44
9,CCn1c(CCC(N)=O)nnc1SCC(=O)c1cc(C)n(C2CC2)c1C,-19.4
10,O=C(CSc1nnc(SCc2ccc(Cl)cc2)s1)N/N=C/c1ccc(C(=O)O)cc1,24.6
11,CN(C)c1nc(SCc2ccc(Cl)cc2)nc2c1CCCC2,13.1
12,COc1ccc(N2CCN(c3nc(-c4cccs4)nc4ccccc34)CC2)cc1,14.4
13,Cc1ccc(O)c(NC(=O)C2=CC(c3ccco3)=NS(=O)(=O)N2C)c1,-3.33
14,O=C(NC1CCN(C(=O)Nc2cccc(F)c2)CC1)C1CCCCC1,-2.55
15,CCOC(=O)CN(C(=O)CCC(=O)Nc1cc(C)on1)C(C(=O)NC1CCCC1)c1cccnc1 (stereo not drawn),-34.7
16,O=S(=O)(/N=C(/Nc1ccc(F)cc1F)c1ccccc1)c1ccccc1,-10.4
17,O=C(Nc1ccc(OCc2ccccc2)cc1)Nc1cccnc1,10.9
18,Cc1ccccc1OCc1nc(-c2ccc(NC(=O)c3cccs3)cc2)no1,12.1
19,CCCCc1ccc(NC(=O)c2c(C)noc2C)cc1,-5.77
20,CC1C=CCC2C(=O)N(c3cccc(C(=O)Nc4ccc(F)cc4)c3)C(=O)C12 (stereo not drawn),-39.8
21,C[C@H](NC(N)=O)C(=O)N1CCN(S(=O)(=O)c2ccc3ccccc3c2)CC1,-44.2
22,CCOC(=O)C1C(c2ccccc2)C(C(=O)OCC)S(=O)(=O)C(CCN(CC)CC)S1(=O)=O (stereo not drawn),15.9

row,Compound,"hERG current change (%, negative = inhibition) at 10uM [%]"
1,CN1CCCN(C(=O)c2c(F)cccc2Cl)CC1,28.3
2,CSc1cccc(NC(=O)N2CCCC(CNS(=O)(=O)Cc3ccccc3)C2)c1 (stereo not drawn),-37.1
3,CCOC(=O)COc1ccc(S(=O)(=O)N2CCN(c3ccc(OC)cc3)CC2)cc1,0.759
4,COc1cccc(CC(=O)Nc2ccc3nc(C)sc3c2)c1,8.73
5,O=C(CSc1ncn(-c2ccccc2)n1)Nc1nc(-c2ccccc2)cs1,-11.3
6,CC(=O)NC(Cc1cc(C)ccc1C)C(=O)N1CCN(C(=O)c2ccc([N+](=O)[O-])cc2)CC1 (stereo not drawn),-30.2
7,O=S(=O)(NCc1ccc2c(c1)OCO2)c1ccc2oc3ccccc3c2c1,-1.28
8,O=C(O)c1cccc(-c2ccc(/C=N/n3cnnc3)o2)c1,15.1
9,COc1ccc(OCCOC(=O)CNC(=O)c2cccc(C)c2)cc1,-15.7
10,Cc1cc(NC(=O)CCN2CCN(CCO)CC2)ccc1Br.Cl,-4.69
11,CC(=O)Nc1ccc(C(=O)Nc2ccc3c(c2)OCCO3)cc1,6.76
12,COc1ccc(NC(=O)C2CCN(c3cnccn3)CC2)cc1OC,15.5
13,COc1ccc2c(c1)[C@H]1[C@H](CO2)[C@H](c2ccccc2)[C@]2(C)C(=O)Nc3ccccc3C(=O)N12,-15.9
14,O=C(Nc1ccc2c(c1)OCCO2)c1ccc(Br)cc1,-3.81
15,CCCN(CCC(=O)Nc1cc(OC)cc(OC)c1)CC1CC1.Cl,-12.1
16,CCN1CCN(C(=O)c2cc3cc(F)ccc3[nH]2)CC1,-65
17,O=C(C1CCCN(S(=O)(=O)c2cc(Cl)ccc2Cl)C1)N1CCCCCC1 (stereo not drawn),-62.4
18,O=C(N/N=C/c1ccc(O)c(O)c1)C1c2ccccc2Oc2ccccc21,-13.5
19,O=C1C(=O)N(CCS(=O)(=O)c2ccccc2)c2ccccc21,14.8
20,COc1ccc(C(NC(=O)CNC(C)=O)C(=O)Nc2ccc(C(C)C)cc2)cc1 (stereo not drawn),-5.76
21,CN1CCC(C(=O)N2CCCC(C(=O)c3ccc4c5c(cccc35)CC4)C2)CC1 (stereo not drawn),-61.1
22,COc1ccc(C2/C(=C(/O)c3ccccc3)C(=O)C(=O)N2CCCN2CCOCC2)cc1 (stereo not drawn),22.7

row,Compound,"hERG current change (%, negative = inhibition) at 10uM [%]"
1,Oc1ccc2ccccc2c1C=Nc1ccccc1-c1nc2ccccc2[nH]1,-5.84
2,COc1cc(C(=O)N2CCC(NC(=O)C(Cc3ccc(C(C)C)cc3)NC(C)=O)CC2)cc(OC)c1OC (stereo not drawn),-3.73
3,CCC1CCCCN1CCCNC(=O)c1cn(CC(C)C)c(=O)c2cc(OC)c(OC)cc12 (stereo not drawn),-6.7
4,COC(=O)C1=C(CN2CCc3ccccc32)NC(=O)NC1c1cc(C)ccc1C (stereo not drawn),-2.97
5,CCOC(=O)C(Cc1c(F)cccc1F)(NC(C)=O)C(=O)OCC,8.41
6,Cc1ccc(/C=C/C(=O)NC(=S)N2CCN(c3ccc(F)cc3)CC2)cc1,10.4
7,COc1cccc(N2[C@@H](CC(=O)O)c3ccc(/C=C/C(=O)O)cc3S2(=O)=O)c1,25.3
8,O=C1CC(C2CCCO2)C(=O)N1c1ccc(Cl)c(Cl)c1 (stereo not drawn),-8.45
9,CCN(CC)c1ccc(C=Nc2ccc(N(C)C)cc2)c(O)c1,14.8
10,CCOC(=O)C1=NOC(COc2ccccc2C=O)C1 (stereo not drawn),3.3
11,CCOC(=O)c1cc2cc(C)ccc2[nH]1,4.23
12,Cc1ccc(S(=O)(=O)/N=C(\N)c2ccc(F)cc2)cc1,13.8
13,Cc1ccc(S(=O)(=O)N(C)/C(=N/S(=O)(=O)c2ccccc2)c2ccccc2)cc1,-13.8
14,Cc1c(C(C)O)nnn1-c1nonc1N (stereo not drawn),-2.42
15,Cc1cc(C)n2nc(-c3ccsc3-n3c(C)ccc3C)cc2n1,4.45
16,CCOc1ccc2nc(NC(=O)CSc3nnnn3C3CCCCC3)sc2c1,-1.6
17,O=C(Nc1ccc2c(c1)OCO2)c1ccc(Br)o1,0.436
18,C=CCN1N=C(/C=C/c2ccccc2)CCC1=O,-4.77
19,CCOC(=O)N1CCN(c2c(NCCN(C)Cc3ccccc3)c(=O)c2=O)CC1,0.413
20,NS(=O)(=O)c1ccc(CCNC(=O)CN2CCN(c3ccccc3F)CC2)cc1,18.7
21,COc1ccc(/C=C/C(=O)NC(C)(C)C)cc1S(=O)(=O)N1CCOCC1,-15.2
22,Cc1ccc(NC(=O)c2sccc2-n2cccc2)c(Cl)c1,-8.15

row,Compound,"hERG current change (%, negative = inhibition) at 10uM [%]"
1,COC(=O)c1ccc(OCCN2CCCCCC2)cc1.O=C(O)C(=O)O,-1.51
2,OCCC1CN(Cc2cccc3nccnc23)CCN1Cc1ccc(F)cc1 (stereo not drawn),-30.8
3,Cc1cc(C)c2[nH]c(C(=O)Nc3ccc4c(c3)OCO4)cc2c1,11.3
4,C[C@]12CC[C@H](O)C[C@H]1CC[C@@H]1[C@@H]2CC[C@]2(C)[C@@H](C3=CC(=O)OC3)CC[C@]12O,15.8
5,[Br-].c1cnc(N2CC[N+]3(CCCC3)CC2)nc1,4.47
6,O=C1/C(=C\c2cccc([N+](=O)[O-])c2O)SC(=S)N1Cc1ccccc1,28
7,O=C(Cc1ccsc1)NNC(=O)c1cccc(Cl)c1,6.9
8,O=C(NCc1ccc(Cl)cc1)c1cc2ccccc2oc1=O,6.97
9,COc1ccc(C)cc1NC(=O)C(=O)NCc1ccncc1,-10.6
10,CC1=C(C(=O)OC2CCCCC2)C(c2ccccc2F)NC(=O)N1 (stereo not drawn),1.77
11,NNC(=O)c1csc(-c2ncc(C(F)(F)F)cc2Cl)n1,9.63
12,CS(=O)(=O)Cc1nc2ccccc2oc1=O,9.72
13,CCOc1cc(C(=O)N2CCN(c3ccccc3)CC2)cc(OCC)c1OCC,10.7
14,COc1ccc(-c2cc(=O)oc3c(C)c(OCC(=O)Nc4cccnc4)ccc23)cc1,-11.6
15,Cc1ccc(N2C(S)=C(C#N)C(=O)NC23CCCCC3)cc1,20.8
16,O=C(CN1c2cccc3cccc(c23)S1(=O)=O)Nc1ccccc1F,19.5
17,CCOC(=O)c1ccc(NCc2ccc3c(c2)OCO3)cc1,24.1
18,CCSc1nnc(C(N)Cc2ccccc2)o1.Cl (stereo not drawn),13.3
19,CCOC(=O)N1CCN(C(=O)c2cn(C)c3ccc(S(=O)(=O)N4CCC(C)CC4)cc3c2=O)CC1,-1.12
20,Cn1c(N)c(C(=O)COC(=O)Cc2ccsc2)c(=O)n(C)c1=O,-35.9
21,O=C(CSc1nnnn1-c1cccnc1)Nc1ccc(F)cc1F,15.4
